Assay results reported in US11685745B2, “Substituted benzoxazole and benzofuran compounds as PDE7 inhibitors” (Dart NeuroScience, LLC, priority 2017, dated 2023).

What follows are compounds tested against N-terminal truncated recombinant human PDE7B enzyme (Homo sapiens (Human), UniProt Q9NP56) (assay: biochemical).
`N#Cc1cccnc1N1CCN(Cc2cc3cc(Cl)c4c(c3o2)C2(CCCCC2)NC(=O)N4)CC1` [Example 510, 2-(4-{5′-Chloro-7′-oxo-7′,8′-dihydro-6′H-spiro[cyclohexane-1,9′-furo[2,3-f]quinazoline]-2′-ylmethyl}piperazin-1-yl)pyridine-3-carbonitrile] gave an IC50 of 100 to 1000 nM. With `COCCN(Cc1cc2cc(Cl)c3c(c2o1)C1(CCCCC1)NC(=O)N3)C(C)C` [Example 471, 5′-Chloro-2′-{[(2-methoxyethyl)(propan-2-yl)amino]methyl}-7′,8′-dihydro-6′H-spiro[cyclohexane-1,9′-furo[2,3-f]quinazoline]-7′-one] the IC50 was 100 to 1000 nM. With `COCCNC(=O)c1nc2cc(Cl)c3c(c2o1)C1(CCCCC1)NC(=O)N3` [Example 183, 5-Chloro-N-(2-methoxyethyl)-7-oxo-7,8-dihydro-6H-spiro[[1,3]oxazolo[5,4-f]quinazoline-9,1′-cyclohexane]-2-carboxamide] the IC50 was 10 to 100 nM. Work on `O=C1Nc2c(Cl)cc3cc(C(=O)NCC4COc5ccccc5O4)oc3c2C2(CCCCC2)N1` (stereo not shown) [Example 452, 5′-Chloro-N-(2,3-dihydro-1,4-benzodioxin-2-ylmethyl)-7′-oxo-7′,8′-dihydro-6′H-spiro[cyclohexane-1,9′-furo[2,3-f]quinazoline]-2′-carboxamide] yielded an IC50 of 10 to 100 nM. Work on `O=C1Nc2c(Cl)cc3nc(CNCC4CCOC4)oc3c2C2(CCCCC2)N1` (stereo not shown) [Example 148, 5-Chloro-2-{[(oxolan-3-ylmethyl)amino]methyl}-7,8-dihydro-6H-spiro[[1,3]oxazolo[5,4-f]quinazoline-9,1′-cyclohexane]-7-one] yielded an IC50 of 10 to 100 nM. `O=C1Nc2c(Cl)cc3cc(CN4CCN(Cc5ccco5)CC4)oc3c2C2(CCCCC2)N1` [Example 529, 5′-Chloro-2′-{[4-(furan-2-ylmethyl)piperazin-1-yl]methyl}-7′,8′-dihydro-6′H-spiro[cyclohexane-1,9′-furo[2,3-f]quinazoline]-7′-one] showed an IC50 of 100 to 1000 nM. `O=C1Nc2c(Cl)cc3nc(CN4C[C@H]5C[C@@H]4CO5)oc3c2C2(CCCCC2)N1` [Example 109, 5-Chloro-2-[(1R,4R)-2-oxa-5-azabicyclo[2.2.1]heptan-5-ylmethyl]-7,8-dihydro-6H-spiro[[1,3]oxazolo[5,4-f]quinazoline-9,1′-cyclohexane]-7-one] gave an IC50 of 10 to 100 nM. `O=C1Nc2c(Cl)cc3nc(CN[C@@H]4CCCOC4)oc3c2C2(CCC(F)(F)CC2)N1` [Example 229, 5-Chloro-4′,4′-difluoro-2-({[(3R)-oxan-3-yl]amino}methyl)-7,8-dihydro-6H-spiro[[1,3]oxazolo[5,4-f]quinazoline-9,1′-cyclohexane]-7-one] was tested, and the IC50 was 100 to 1000 nM. Compound `O=C1Nc2c(Cl)cc3cc(C(=O)NCC(F)(F)C4CCC4)oc3c2C2(CCCCC2)N1` [Example 396, 5′-Chloro-N-(2-cyclobutyl-2,2-difluoroethyl)-7′-oxo-7′,8′-dihydro-6′H-spiro[cyclohexane-1,9′-furo[2,3-f]quinazoline]-2′-carboxamide] has an IC50 of 100 to 1000 nM. With `N#CC1CN(Cc2cc3cc(Cl)c4c(c3o2)C2(CCCCC2)NC(=O)N4)C1` [Example 522, 1-{5′-Chloro-7′-oxo-7′,8′-dihydro-6′H-spiro[cyclohexane-1,9′-furo[2,3-f]quinazoline]-2′-ylmethyl}azetidine-3-carbonitrile] the IC50 was 10 to 100 nM.
